Measurements reported in PubChem BioAssay AID1345082 (National Center for Advancing Translational Sciences (NCATS), 2018).
Out of some 94,000 compounds screened, about 4,000 (4.3%) were called active. This list was built around the results that the source calls inconclusive (neither active nor inactive); the mix of calls is not that of the screen. Calls follow the shape of the dose curve; as a rule, active = well fitted inhibition curve with a large enough effect; inconclusive = small, poorly fitted or top-dose-only effect; inactive = no such curve, though single readings can be large or run the other way. A potency beside an inconclusive call is a rough fit, not a confirmed value.

test: Cytotoxic Profiling in NIH 3T3 Cell Line of Diverse Libraries Using Quantitative High-Throughput Screening; conditions: NIH 3T3 viability, CellTiter-Glo ATP luminescence, 48-72 h; series mostly up to 96.7 µM; also: nearly all actives have a fitted effect of over 55% in size
How it was run: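 Luminescent ATP readout (CellTiter-Glo, 10 min RT) after 48 or 72 hr compound exposure of NIH 3T3 cells seeded at 400 cells/well in 1536-well format; quantitative HTS.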
Potency is read from the fitted curve at half-maximal effect; tags tell the direction and shape of the fitted curve.

| Structure (SMILES) | Potency |
| --- | --- |
| O=C(CCc1ccccc1)N1CC2(C1)CN(c1ccccc1)C(=O)O2 | inconclusive: 100 µM [inhibitor, single point] |
| O=C(Nc1cccc(Cl)c1)[C@@H]1C[C@@H](c2ccc(F)cc2)N([S+](=O)([O-])c2cccnc2)C1 | active: 35.5 µM |
| C#CCNC(=O)C1CCCCN1Cc1ccc(-c2ccccc2OC)cc1 (stereo unspecified) | inconclusive: 50.1 µM [inhibitor, partial curve, poor fit] |
| CCCN1C(=O)Cc2cc(C(=O)NC(C)c3ccc(OCC)cc3)ccc21 (stereo unspecified) | inconclusive: 56.2 µM [inhibitor, partial curve, poor fit] |
| Cc1cccc(CN2CCc3c(n(Cc4cccnc4)n(-c4ccccc4)c3=O)C2)n1 | active: 100 µM |
| CCc1ccc([S+](=O)([O-])c2nnn3c2nc(NCc2ccncc2)c2ccccc23)cc1 | inconclusive: 31.6 µM [inhibitor, partial curve] |
| O=C(NCc1ccccc1F)C1CCN(C(=O)c2ccc(-c3cncnc3)cc2)CC1 | inconclusive: 44.7 µM [inhibitor, partial curve, poor fit] |
| CCOc1ccc(C(=O)NC2CCN(c3cc(-c4ccc(Cl)cc4)[nH]n3)C2)cc1 (stereo unspecified) | inconclusive: 70.8 µM [inhibitor, partial curve, poor fit] |
| COc1ncccc1-c1cc(C(=O)NCc2c(C)cc(C)[nH]c2=O)c2c(c1)N(C)CCO2 | inconclusive: 31.6 µM [inhibitor, full curve] |
| Cc1noc(-c2cn(C3CCN(C(=O)COc4ccc(F)cc4)CC3)nn2)n1 | inconclusive: 70.8 µM [inhibitor, single point] |
| CCOc1cc(=O)n2c(c1C(=O)NCc1ccc3c(c1)OCO3)CCCC2 | inactive |
| CN1CCOc2c(C(=O)NCC[S+](C)(=O)[O-])cc(-c3ccccc3F)cc21 | inconclusive: 89.1 µM [inhibitor, partial curve] |
| CCS(=O)(=O)N1CCC(N2C(=O)C3(CCCC3)C2c2ccccc2)CC1 (stereo unspecified) | inconclusive: 50.1 µM [inhibitor, single point] |
| Fc1ccc2nc([C@H]3CCN(C4CCC4)C3)[nH]c2c1 | inconclusive: 126 µM [inhibitor, partial curve, poor fit] |
| COc1ccc(CC(=O)NC2CCN(c3cc(-c4ccc(F)cc4)[nH]n3)C2)cc1OC (stereo unspecified) | inconclusive: 20 µM [inhibitor, full curve] |
| O=C1Nc2ccc(-c3ccccc3)cc2C(=O)N2CCN(C(=O)c3cccs3)C[C@H]12 | inactive |
| Cc1cc(C)cc(NC(=O)c2cc3n(n2)CC(c2ccc(Cl)cc2)OC3)c1 (stereo unspecified) | inactive |
| CC(C)(C)C(=O)Nc1cc(-c2cccnc2)nn1-c1ccccc1 | inconclusive: 79.4 µM [inhibitor, partial curve, poor fit] |
| COCCN1CCC2(CCC1=O)CCN(C(=O)c1ccc(Cc3c(C)noc3C)o1)CC2 | inconclusive: 79.4 µM [inhibitor, partial curve, poor fit] |
| Cc1ccc(-c2c(C(=O)NCCc3ccc(Cl)cc3)nc3sccn23)cc1 | inconclusive: 39.8 µM [inhibitor, partial curve, poor fit] |
| COc1ccc(CNC(=O)CC2CCCN(c3cnn(CC4CC4)c(=O)c3)C2)cc1 (stereo unspecified) | inconclusive: 70.8 µM [inhibitor, single point] |

| Structure (SMILES) | Potency |
| --- | --- |
| O=C(Nc1ccc(F)cc1)c1cc2n(n1)CC(c1ccc3c(c1)OCO3)OC2 (stereo unspecified) | inconclusive: 50.1 µM [inhibitor, partial curve, poor fit] |
| O=C(c1ccccc1)N1CCC(C(=O)N2CCCC(c3nc4ncccc4[nH]3)C2)CC1 (stereo unspecified) | inactive |
| O=C(Nc1cccc(F)c1)N1CCC(CCNC(=O)C2(c3ccccc3)CC2)CC1 | inconclusive: 44.7 µM [inhibitor, partial curve, poor fit] |
| CCCOc1cc(C)c2c(c1C)C[C@H](C(C)C(=O)N1CCN(CC(=O)O)CC1)CC2 (stereo partly specified) | inconclusive: 100 µM [inhibitor, partial curve] |
| O=C(NCc1cccnc1)C1CCc2nnc(-c3ccc(Cl)nc3)n21 (stereo unspecified) | inactive |
| CCc1nc(-c2ccc(OC3CCN(C(=O)Cc4c[nH]c5ccccc45)C3)cc2)no1 (stereo unspecified) | inconclusive: 50.1 µM [inhibitor, partial curve, poor fit] |
| O=C1CC(c2ccccc2)N(Cc2ccc3[nH]ccc3c2)CCCCCN1 (stereo unspecified) | inconclusive: 50.1 µM [inhibitor, partial curve, poor fit] |
| O=C(N1CCCC1)N1C2CCC1CN(c1ccc(C(F)(F)F)cc1)C2 | inconclusive: 35.5 µM [inhibitor, partial curve] |
| CCN(Cc1noc(CC(C)C)n1)C(=O)c1cnc(-c2ccccn2)[nH]c1=O | inconclusive: 25.1 µM [inhibitor, full curve, poor fit] |
| CCOc1ccc(C(C)NC(=O)C2CCCN(c3cnc4nccnc4c3)C2)cc1 (stereo unspecified) | inactive |
| O=C(NCCOc1ccccc1)c1cnc2n1CCN(Cc1ccc3[nH]ccc3c1)CC2 | inconclusive: 100 µM [inhibitor, single point] |
| Cc1ccc(-c2cc(N3CCCN(C(=O)COc4ccccc4)CC3)n[nH]2)cc1C | inconclusive: 44.7 µM [inhibitor, partial curve, poor fit] |
| CCC(CC)NC(=O)CCC1CCN(C(=O)c2ccc(C)cc2)CC1 | inactive |
| CC(=O)Nc1ccc(S(=O)(=O)N2C[C@@H]3C[C@H](C2)c2c(-c4ccc(OC(F)(F)F)cc4)ccc(=O)n2C3)cc1 | inconclusive: 79.4 µM [inhibitor, partial curve, poor fit] |
| COc1cccc(C(=O)N(C)Cc2ccccc2C(F)(F)F)c1 | inconclusive: 89.1 µM [inhibitor, partial curve] |
| Cc1ccc(NC(=O)C2CN(S(=O)(=O)C3CC3)CC23CCCCC3)c(C)c1 (stereo unspecified) | inconclusive: 70.8 µM [inhibitor, single point] |
| COc1ccc(C(=O)N2CCC3(C2)C(=O)N(Cc2ccccc2)c2ccccc23)cc1 (stereo unspecified) | inconclusive: 50.1 µM [inhibitor, partial curve, poor fit] |
| Cc1ccc(OCCC2CCN(C(=O)Cc3ccsc3)C2)cc1 (stereo unspecified) | inconclusive: 31.6 µM [inhibitor, partial curve] |
| COCc1ccc2c(c1)c(OC(C)(C)C(=O)N1CCN(C)CC1)nn2Cc1ccccc1 | inconclusive: 31.6 µM [inhibitor, partial curve] |
| O=C(N[C@@H]1CCC[C@@H]1C(=O)NCCc1cccs1)c1ccncc1 | inactive |
| CNC(=O)c1ccc(CNc2nc(CCN)nc3sc(C)c(C)c23)o1 | inconclusive: 50.1 µM [inhibitor, partial curve, poor fit] |

| Structure (SMILES) | Potency |
| --- | --- |
| COc1ccc(Cn2c(=O)c(C(=O)N3CCN(C(C)=O)CC3)nc3cccnc32)cc1 | inactive |
| N#Cc1ccccc1CN1CCNc2nc(COc3ccccc3)n(Cc3ccccc3)c2C1=O | inconclusive: 50.1 µM [inhibitor, partial curve, poor fit] |
| Cc1cccc(-c2cccc(CN3CCC(N[S+](=O)([O-])c4ccccc4)CC3)c2)c1 | active: 25.1 µM |
| CC(=O)c1ccc(NC(=O)O[C@@H]2CO[C@H]3[C@@H]2OC[C@@H]3NC(=O)Nc2ccccc2)cc1 | inactive |
| Cc1ccc(NC(=O)C2(Cc3ccccc3)CCCCC(=O)N2)cc1 (stereo unspecified) | inconclusive: 31.6 µM [inhibitor, partial curve] |
| CN(C)c1ccc(C(=O)N[C@H]2CO[C@H]3[C@@H]2OC[C@@H]3Nc2nccc(-c3cccs3)n2)cc1 | inconclusive: 35.5 µM [inhibitor, full curve] |
| CC(C)N(C)Cc1ccc(-c2nc(-c3cccnc3)cc(=O)[nH]2)cc1 | inactive |
| O=C(c1ccc2c(c1)OCO2)N1CCCN(c2cc(-c3ccc(Cl)cc3)[nH]n2)CC1 | inconclusive: 28.2 µM [inhibitor, partial curve] |
| COc1cccc(C(=O)N2CCCC(n3cc(-c4nc(C(C)C)no4)nn3)C2)c1 (stereo unspecified) | inactive |
| CCC(=O)N1CCCC1c1nc(CCOc2ccc(F)cc2)no1 (stereo unspecified) | inactive |
| CN1CCC(C(=O)N2Cc3ccccc3CC3(CCCN(Cc4ccccc4)C3)C2)CC1 (stereo unspecified) | inconclusive: 56.2 µM [inhibitor, partial curve, poor fit] |
| O=C(c1nc(-c2ccc(Cl)cc2)c2ccccn12)N1CCCC1 | inconclusive: 50.1 µM [inhibitor, partial curve, poor fit] |
| COc1cccc(-c2n[nH]c3c2CC(=O)N(CC2CCOCC2)C3)c1OC | inconclusive: 100 µM [inhibitor, single point] |
| COc1ccc(CCNC(=O)CC(c2ccccc2OC)c2c[nH]c3ccccc23)cc1OC (stereo unspecified) | inconclusive: 44.7 µM [inhibitor, partial curve, poor fit] |
| O=C1CC2(CCN(Cc3cccc4ccccc34)CC2)Oc2cc(Cl)ccc21 | inconclusive: 56.2 µM [inhibitor, partial curve, poor fit] |
| COCCOCc1nc(C2CCN(C(=O)c3ccncc3)CC2)no1 | inactive |
| CCOC(=O)C1CCN(C(=O)c2ccc3oc(-c4ccncc4Cl)nc3c2)CC1 | inconclusive: 100 µM [inhibitor, partial curve] |
| Cc1ccc(-c2noc([C@@H]3C[C@@H](O)CN3Cc3ccccc3O)n2)cc1F | active: 44.7 µM |
| Cc1ccc(CNC(=O)N2CCc3c(nc4cc(-c5ccccc5Cl)[nH]n4c3=O)C2)cc1 | inconclusive: 70.8 µM [inhibitor, single point] |
